# PubChem BioAssay AID1159614 (National Center for Advancing Translational Sciences (NCATS), 2016)
# The campaign covered roughly 45,000 compounds. About 65 (0.1%) were called active. The call rests on the fitted dose curve; in most records, active means well fitted activation curve with a large enough effect; inconclusive means small, poorly fitted or top-dose-only effect; inactive means no such curve, though single readings can be large or run the other way. This is one part of the list.
# Target: Galactocerebrosidase (Homo sapiens) (UniProt P54803)
# Assay: A Novel Cell-Based Assay to Identify Small Molecules for B -Galactocerebrosidase; further: 0% is about no effect; nearly all actives have a fitted effect of over 65% in size
# Conditions: 145M-Twi-hGALC-G270D cells (Twitcher mouse brain line with human GALC G270D), HMU-beta-Gal fluorescence, 48 h; series mostly up to 57.5 µM; activation: at the top concentration
# In short: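 Fluorogenic HMU-b-Gal hydrolysis (0.1 mM final, pH 5.2 citrate-phosphate with 1 mg/mL sodium taurocholate; carbonate stop buffer) measures mutant GALC activity after compound treatment of live 145M-Twi Twitcher brain cells stably carrying human GALC-G270D, with wild-type GALC line alongside; activation sought.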
# Chain of UniProt P54803 (P54803 whole entry, looked up): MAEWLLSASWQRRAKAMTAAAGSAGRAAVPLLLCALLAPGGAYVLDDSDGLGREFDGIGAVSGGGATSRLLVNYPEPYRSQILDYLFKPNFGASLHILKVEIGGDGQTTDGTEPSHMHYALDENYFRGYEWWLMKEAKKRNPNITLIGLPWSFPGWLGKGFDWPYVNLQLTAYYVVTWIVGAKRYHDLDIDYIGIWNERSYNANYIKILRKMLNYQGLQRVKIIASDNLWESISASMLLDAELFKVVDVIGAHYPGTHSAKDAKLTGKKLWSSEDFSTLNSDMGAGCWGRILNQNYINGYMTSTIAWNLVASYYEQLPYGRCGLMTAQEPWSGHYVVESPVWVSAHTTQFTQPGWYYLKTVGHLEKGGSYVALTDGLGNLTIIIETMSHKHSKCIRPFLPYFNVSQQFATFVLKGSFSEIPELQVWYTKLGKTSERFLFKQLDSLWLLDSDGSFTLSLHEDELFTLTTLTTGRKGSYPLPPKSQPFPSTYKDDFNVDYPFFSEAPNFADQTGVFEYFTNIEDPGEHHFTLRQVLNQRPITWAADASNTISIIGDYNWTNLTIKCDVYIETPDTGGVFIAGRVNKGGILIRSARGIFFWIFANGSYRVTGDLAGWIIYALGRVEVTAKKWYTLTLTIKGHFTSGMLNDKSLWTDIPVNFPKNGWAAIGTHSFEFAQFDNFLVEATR
row,Compound,activation
1,CC(=O)N1CCCc2cc(S(=O)(=O)N3CCCC(C(=O)NCc4ccccc4Cl)C3)ccc21 (stereo unspecified),inactive: -20.7%
2,CCc1ccc(-c2nn(CC(=O)NC3CCCCC3)c3c2cnc2ccc(F)cc23)cc1,inactive: -7.67%
3,COc1ccccc1CNC(=O)c1cc2c(=O)oc3ccc(C)cc3c2s1,inactive: -11%
4,COc1ccc(CNC(=O)c2cc3c(=O)n(Cc4cccnc4)ccc3nc2C)cc1,inactive: -14.3%
5,CCCNS(=O)(=O)c1cc(-c2nn3c(C)nnc3c3ccccc23)ccc1C,inactive: -8.46%
6,COc1ccccc1CCNC(=O)Cc1ccc(NC(=O)N2CCSc3ncccc32)cc1,inactive: -24%
7,CC(=O)c1ccc(S(=O)(=O)N2CCn3cccc3C2c2ccccc2F)cc1 (stereo unspecified),inactive: -1.67%
8,COc1cccc(NC(=O)CSc2nc3c([nH]c4ccccc43)c(=O)n2-c2cc(C)cc(C)c2)c1,inactive: -21%
9,Cc1cc(C)cc(NC(=O)Cc2csc(C)n2)c1,inactive: 2.74%
10,CCc1cccc(OCC(=O)Nc2ccc(S(=O)(=O)Nc3ncccn3)cc2)c1,inactive: 2.95%
11,CCOc1ccccc1NC(=O)C1CCN(S(=O)(=O)c2ccc3[nH]c(=O)oc3c2)CC1,inactive: -12.7%
12,CC1CCc2c(cc(-c3ccccc3)n2-c2ccc(C(=O)NC(C)C)cc2)C1 (stereo unspecified),inactive: 18.8%
13,Cc1cccc(C)c1OCc1nc2c3cnn(-c4ccccc4F)c3ncn2n1,inactive: -11.8%
14,CC(C)(C)c1ccc(OCc2nc3ccccc3n2CCOc2ccccc2)cc1,inactive: -14.4%
15,O=C(CCS(=O)(=O)c1cc(Br)cc2c1N(C(=O)C1CC1)CC2)N1CCN(c2cccc(Cl)c2)CC1,inactive: -35.5%
16,CCC(C)NC(=O)c1c(C)oc2ncn(CC(C)C)c(=O)c12 (stereo unspecified),inactive: -9.92%
17,COc1ccc(-c2nc3ccccc3n3c(-c4cccc(C)c4)c4c(=O)n(C)c(=O)n(C)c4c23)cc1OC,inactive: -5.86%
18,CC1=C(C(=O)OC2CCCC2)C(c2c(Cl)cccc2Cl)CC(=O)N1 (stereo unspecified),inactive: -8.46%
19,CCCCNC(=O)CSc1nc2cc3c(cc2c(=O)n1CCCC(=O)NCCc1ccc(OC)c(OC)c1)OCO3,inactive: -2.23%
20,Cc1cc(C(=O)N2CCN(c3ccccc3)CC2)c2c(C)nn(-c3cccc(F)c3)c2n1,inactive: -5.59%
21,COc1cc(NC(=O)C2CCN(C(=O)c3sc4nc[nH]c(=O)c4c3C)CC2)cc(OC)c1OC,inactive: 2.47%
22,CCCCNC(=O)C1CCC(Cn2c(=O)c3sccc3n(Cc3ccccc3)c2=O)CC1 (stereo unspecified),inactive: -11.3%
23,O=C(Cn1c(=O)n(CCc2ccccc2)c(=O)c2cccnc21)Nc1ccc(F)cc1,inactive: -21.2%
24,CCOc1ccccc1OCC1CNCCO1 (stereo unspecified),inactive: -19%
25,Cc1cc(C)c(NC(=O)c2nc3ccccc3nc2N2CCCCC2)c(C)c1,inactive: -13.4%
26,CCC(=O)N1CCc2cc(S(=O)(=O)NC(C(=O)NCCc3ccc(OC)c(OC)c3)C(C)C)ccc21 (stereo unspecified),inactive: -5.21%
